Data as given in PubChem BioAssay AID652106 (National Center for Advancing Translational Sciences (NCATS), 2013).
The campaign covered roughly 370,000 compounds. About 500 (0.14%) were called active. The inconclusive results got no clear call from the source; some entries with a clear call stand among them for comparison. Calls follow the shape of the dose curve; as a rule, active = well fitted activation curve with a large enough effect; inconclusive = small, poorly fitted or top-dose-only effect; inactive = no such curve, though single readings can be large or run the other way. Potencies of inconclusive entries are left out as doubtful fits.

Test: qHTS of alpha-syn Inhibitors; also: nearly all actives have a fitted effect of over 65% in size; as to growth rescue (activation): % of control where 0% means no effect
Settings: Yeast expressing alpha-synuclein, BacTiter-Glo, 24 h; Potency: growth rescue unless noted; growth rescue (activation): at 46.1 µM (top of the series) unless noted
In short: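 Readout is rescue of growth in alpha-synuclein-expressing yeast, so inhibitors of toxicity appear as activators. Growth after 24 hr at 30 deg C in galactose medium is quantified by luminescence.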
Potency is read from the fitted curve at half-maximal effect; tags tell the direction and shape of the fitted curve.

Compound	Potency	growth rescue (activation)
COc1cccc(CNc2nc3cc(-c4ccc(C)cc4)sc3c(=O)n2C)c1OC	inconclusive [activator, single point]	–
COc1cccc(NC(=O)c2nc(SC)ncc2Cl)c1	–	inactive: -14.6%
Cc1ccc2ccc(C(Nc3ccccc3)c3ccccc3)c(O)c2n1 (centres undefined)	inconclusive [activator, single point]	–
Cc1nn(C)cc1CNC(=O)COc1ccc(Cl)cc1Cl	inconclusive [activator, partial curve]	–
O=C(NNC(=O)c1cnccn1)c1ccc(Cl)c(Cl)c1	inconclusive [activator, single point]	–
CCCN(CC(=O)Nc1cccc(Br)c1)CC(=O)Nc1ccc(F)c(F)c1F	inconclusive [activator, single point]	–
Cc1ccc(C)c(N2CCN(C(=O)Cn3cnc4onc(-c5ccc(F)cc5)c4c3=O)CC2)c1	inconclusive [activator, single point]	–
Cn1c2ccccc2c(=O)c2ccc(C#CC3(O)CCCCC3)cc21	inconclusive [activator, single point]	–
O=[N+]([O-])c1ccccc1-c1ccc(C(=S)N2CCCC2)o1	–	inactive: 1.44%
C1CCc2nnnn2CC1	inconclusive [activator, single point]	–
COc1ccc(CS(=O)/C(Cl)=C(/Cl)C(=O)Nc2ccc(OC)nc2)cc1 (centres undefined)	–	inconclusive: -78.2% [activator]
CCCCN1C(=O)C(CC(=O)NCc2cccc3ccccc23)CC(C(=O)N2CCOCC2)=C1C (centres undefined)	inconclusive [activator, single point]	–
CCN(C(=O)c1ccc2c(Cl)c3c(nc2c1)CCC3)c1ccc(C)c(C)c1	inconclusive [activator, single point]	–
C[C@H](NC(=O)c1nc[nH]c1C(=O)N[C@@H](Cc1ccccc1)C(=O)OC(C)(C)C)c1ccccc1	–	inactive: 7.91%
Cc1ccc(S(=O)(=O)NCCNc2ccc([N+](=O)[O-])cc2C(F)(F)F)cc1	inconclusive [activator, single point]	–
COc1cc(-c2nn3c(-c4cc(-c5ccccc5)n[nH]4)nnc3s2)cc(OC)c1OC	inconclusive [activator, single point]	–
CCCNC(=O)c1cc2c(c(-c3cccc(-c4ccccc4F)c3)n1)[C@@H](CCO)N(C(=O)CC1CC1)C2	–	inactive: 0.0013%
Cc1cc(NC(=O)c2ccccc2O)nc(C)n1	–	inactive: -11.8%
c1csc(-c2csc(-c3cccs3)n2)c1	–	inactive: 0.0754%
